{
  "source": "the supplement of paper PMC11417369",
  "note": "This is one part of the list.",
  "data": [
    {"tested_on": "PfSIP2 AP2 domain 1 (GST-tagged)", "test": "gcPBM binding intensity (ln(normalized median fluorescence intensity)); higher = stronger DNA binding", "outline": "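An Agilent 4 × 180k array of primer-extended double-stranded 36-bp intergenic genomic probes, with negative controls, was incubated for 1 h with GST-tagged P. falciparum DNA-binding domains expressed in E. coli. Alexa488 anti-GST antibody detected bound protein, scanned at 488 nm. Binding intensity is the highest Masliner-normalised natural-log median intensity across replicate spots of either probe orientation.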", "values": [
      {"sequence": "AATACCCATATCTTCACACATACATAATAAATTATA [CACACA_site5367]", "gcPBM binding intensity (ln)": 6.96},
      {"sequence": "TTTGAATATTCATATGCACACAAATTAATATACATA [CACACA_site8040]", "gcPBM binding intensity (ln)": 7.14},
      {"sequence": "TTTATTTATGTGTGGGTGCATATACGTATGATGTAT", "gcPBM binding intensity (ln)": 10.6},
      {"sequence": "GTCGTATAATTTTCAGTGCAATATTTGAATAAATGG [GTGCAC_site9404]", "gcPBM binding intensity (ln)": 8.58},
      {"sequence": "ATTTATTAATTACCATGTATAAAAAATTATATAATA [CACACA_negctrl_site581]", "gcPBM binding intensity (ln)": 6.85},
      {"sequence": "AGCAACTCAATATATATAAGAATTGTAATATAATAT [GTGCAC_negctrl_site429]", "gcPBM binding intensity (ln)": 6.71},
      {"sequence": "ATACAATACAAAAACACACACAAAAAAAGAAAAGGA [CACACA_site2156]", "gcPBM binding intensity (ln)": 7.18},
      {"sequence": "ATATATTTATATATTTGTACATATAATATCTTCTTT [XGTACX_site8504]", "gcPBM binding intensity (ln)": 6.93},
      {"sequence": "ATAATGTATTTATATATATATATATATTTTAATAAA [CACACA_negctrl_site460]", "gcPBM binding intensity (ln)": 7.09},
      {"sequence": "AATTATAAAAAAAAAAAAAAAAAAAAAAACTAAATG [CACACA_negctrl_site1379]", "gcPBM binding intensity (ln)": 6.83},
      {"sequence": "TAATAAATCAATAAATGTACATATATGTATAATTTC [XGTACX_site980]", "gcPBM binding intensity (ln)": 7},
      {"sequence": "TTTAAAAATATATTCACACAGAAATAGTAAAAGTTA [CACACA_site4587]", "gcPBM binding intensity (ln)": 6.88},
      {"sequence": "ATTATAACTAAATAAATGATATATAATATTTTATTT [XGTACX_negctrl_site234]", "gcPBM binding intensity (ln)": 6.79},
      {"sequence": "TATATATAGAAACACACACACACACCCAAGCGTAGC [CACACA_site63]", "gcPBM binding intensity (ln)": 6.93},
      {"sequence": "ATCTATATCTATAATACACACATAAATGGATATATA [CACACA_site6284]", "gcPBM binding intensity (ln)": 7.08},
      {"sequence": "AATGTGTACGCACGCACACACAAAAAAATATATATA [CACACA_site2913]", "gcPBM binding intensity (ln)": 7.24},
      {"sequence": "CAAGCCCTTCTGCTTACACACAGTAATTATTGTGCA [CACACA_site7399]", "gcPBM binding intensity (ln)": 6.63},
      {"sequence": "TAAATATATTTATAAGCACACACTAATAAACCAACA [CACACA_site8022]", "gcPBM binding intensity (ln)": 7.09},
      {"sequence": "TTATGCAATTTGTATTGTACATTCATGATATTAATA [XGTACX_site5070]", "gcPBM binding intensity (ln)": 6.81},
      {"sequence": "AAAACATAAATACATACACACATAATATAGATTAAT [CACACA_site6205]", "gcPBM binding intensity (ln)": 6.95},
      {"sequence": "TTAAAAATAAATTCATGTACATAATATATATATATA [XGTACX_site7908]", "gcPBM binding intensity (ln)": 9.25},
      {"sequence": "CATATGTATATGACTACACACAAGGGTGTACCTATA [CACACA_site6670]", "gcPBM binding intensity (ln)": 6.83},
      {"sequence": "TATATACAACGTTAAGCACACACAAAAAAAATTTAA [CACACA_site9013]", "gcPBM binding intensity (ln)": 6.99},
      {"sequence": "TTGCATTTATTATACACACACAAAAAAATATTTATA [CACACA_site6252]", "gcPBM binding intensity (ln)": 7.21},
      {"sequence": "TGTTCATTTTTAAAATGTACATATATGTTGTTCCAT [XGTACX_site8444]", "gcPBM binding intensity (ln)": 7.01},
      {"sequence": "CTATATGTTAAATTCTCACACATTATTACAATTTAA [CACACA_site5979]", "gcPBM binding intensity (ln)": 7.01},
      {"sequence": "ACGTATTTTTAAATATATGAATTATGTAACTTGTGA [CACACA_negctrl_site1446]", "gcPBM binding intensity (ln)": 6.92},
      {"sequence": "TATACTATTTAAATGTGTACTAAAAGAATATATTAT [XGTACX_site5238]", "gcPBM binding intensity (ln)": 7.08},
      {"sequence": "GAATATGTGATATTTTGTACATAAAAATAATATATA [XGTACX_site6398]", "gcPBM binding intensity (ln)": 6.93},
      {"sequence": "TATTATAATATATTTGTGCACATAATATCTCCGCTA [GTGCAC_site9799]", "gcPBM binding intensity (ln)": 9.22},
      {"sequence": "AGTAGTCTGGAGAAAAGTACATAGTATCTGATAACC [XGTACX_site2028]", "gcPBM binding intensity (ln)": 6.97},
      {"sequence": "AAAAAGATAAAATATACATGCATATATAATATACAT [TGCATGCA_site488]", "gcPBM binding intensity (ln)": 6.62},
      {"sequence": "TGCTTATATATAAATTGTACTGAAAGAATAAAATAA [XGTACX_site4025]", "gcPBM binding intensity (ln)": 7.07},
      {"sequence": "AAAAAAAAAAAATACACACACATATTTATTTATATA [CACACA_site7114]", "gcPBM binding intensity (ln)": 6.76},
      {"sequence": "AAAAAAGGTAAAAAAAGTACAAAAAAAAAATTAAAA [XGTACX_site6993]", "gcPBM binding intensity (ln)": 7.03},
      {"sequence": "TTTGGATAAAAAATATGTACACACATATAGATATCT [XGTACX_site5660]", "gcPBM binding intensity (ln)": 6.9},
      {"sequence": "TTGACAGGAACGTTGGTGCACGTACTGTTTTTCTTT [GTGCAC_site9389]", "gcPBM binding intensity (ln)": 10.7},
      {"sequence": "GTATAATATTTTAATGCACACACACTAATAAAAAAA [CACACA_site8939]", "gcPBM binding intensity (ln)": 7.65},
      {"sequence": "AAGTATAAATAAAGGCGTACACATGTAAATTATATT [XGTACX_site126]", "gcPBM binding intensity (ln)": 7.01},
      {"sequence": "TAATAGATGTTATGAAGTACTAAATATTAAATATAA [XGTACX_site5717]", "gcPBM binding intensity (ln)": 6.93},
      {"sequence": "TTTATTTTAAATGGGTGTACTCATTCCTTATGGAAG [XGTACX_site1397]", "gcPBM binding intensity (ln)": 6.82},
      {"sequence": "AAAATAATTCATGTTGGTAATAAGACTCGAGGTGAA [CACACA_negctrl_site1054]", "gcPBM binding intensity (ln)": 7.02},
      {"sequence": "ATAATATGAAATATAACACACATATATAAAAACATT [CACACA_site866]", "gcPBM binding intensity (ln)": 6.89},
      {"sequence": "TATTTTTTTTTTGGGTGTACCTTTTATATATATTGT [XGTACX_site5036]", "gcPBM binding intensity (ln)": 7.17},
      {"sequence": "TATACACATTTTTATACACACTTGTTTTATAAAACG [CACACA_site6480]", "gcPBM binding intensity (ln)": 6.96},
      {"sequence": "ATTTAACTAAAGAAGGCACACGTGTTTAAAAAAAAA [CACACA_site5241]", "gcPBM binding intensity (ln)": 6.97},
      {"sequence": "CATTTATATATATACACACACACAAAAAAAAAAAAA [CACACA_site2645]", "gcPBM binding intensity (ln)": 7.1},
      {"sequence": "GACGTTATGATACACATACACACAGGGATAAAAAAT [CACACA_site2882]", "gcPBM binding intensity (ln)": 7.12},
      {"sequence": "AATATTATATTTTATTGTACTAATAAAAATATATGC [XGTACX_site5435]", "gcPBM binding intensity (ln)": 7.16},
      {"sequence": "TATATATATATATATGCATGTACATATATTTGTTAT [TGCATGCA_site379]", "gcPBM binding intensity (ln)": 9.76},
      {"sequence": "TTTTTTTTTTTTTTTTGTACTTAAAAATTTATATAA [XGTACX_site7718]", "gcPBM binding intensity (ln)": 6.95},
      {"sequence": "AATATAGTTCAATATACACACCCCTTTATTCATTTT [CACACA_site3625]", "gcPBM binding intensity (ln)": 6.78},
      {"sequence": "GTAACATACACATATACACACACACCGATATACATA [CACACA_site8278]", "gcPBM binding intensity (ln)": 7.26},
      {"sequence": "ATTAATTAAGGCACATGTACAAAATATTTTTTATAA [XGTACX_site1964]", "gcPBM binding intensity (ln)": 7.16},
      {"sequence": "TATACAATCTATATAACACACATATTTATATAAAAT [CACACA_site1797]", "gcPBM binding intensity (ln)": 7.1},
      {"sequence": "ACAAAACGAACATACGCATGTGTGTACATTAATATA [TGCATGCA_site922]", "gcPBM binding intensity (ln)": 7.12}
    ]}
  ]
}
